Test results from PMC10668032.
Some of the results follow. At the low end of the ranking the order means little.

Molecular target: SIX1-Q177R homeodomain (UniProt Q15475)
Experiment: universal protein binding microarray
Conditions: Universal all-10-mer PBM (8x60K, AMADID 030236), 300 nM GST-tagged protein, Alexa Fluor 488 anti-GST; buffer, salt, pH and temperature not stated; high values mean tight binding; most listed sequences are background and not binding sites; double strand, one strand shown

Row | Sequence | binding signal [E-score]
1 | AAAGTCAT | -0.244
2 | ATCGATAA | -0.0469
3 | ACACCATC | 0.467
4 | ATGCGCTA | -0.224
5 | CGAACCAC | 0.0111
6 | AGCTAGCG | -0.151
7 | CAGCAACG | -0.22
8 | AAAAGAGC | -0.14
9 | GGATAGCA | -0.0589
10 | ATGATAGG | -0.0953
11 | CTGAAATC | -0.139
12 | GCGTCGAA | -0.0307
13 | AACAACTA | -0.0547
14 | TAGTTGAA | -0.158
15 | AGCTAGAC | -0.322
16 | AAGTCGTC | -0.105
17 | AACTACTG | -0.0839
18 | AAGAGTGG | -0.135
19 | TTATACAA | -0.0458
20 | GGTACCTA | 0.106
21 | AGGGCCTC | -0.156
22 | GAACTTAA | -0.0651
23 | GGTACGGA | 0.0763
24 | AAAAAGTA | -0.151
25 | GGTTGTAA | -0.0448

Row | Sequence | binding signal [E-score]
26 | AGACCCGA | 0.122
27 | CAGGCAGG | 0.186
28 | ATCCCCTA | 0.0216
29 | ATTACCAC | -0.0265
30 | AGAATGAC | 0.00032
31 | GACCTTGC | -0.125
32 | GACAGCGA | -0.2
33 | ATCGTAGG | 0.0661
34 | AGACCACG | -0.326
35 | GACTAGCA | -0.0929
36 | GCGGTGCA | 0.14
37 | AGAACGTG | -0.0396
38 | AGTCGGAA | -0.0412
39 | AGTTGCCA | -0.263
40 | GGAAGTAA | -0.126
41 | AGGTTATG | -0.145
42 | AAGGAGGC | -0.247
43 | GCATCTCC | -0.197
44 | ATCCGCCC | 0.106
45 | ACGTGACT | -6.5e-05
46 | CTATCGCA | -0.0514
47 | ACAGGCTA | -0.092
48 | ATATAGGC | -0.0333
49 | CTACGATC | 0.00133
50 | ACAATAGC | -0.138

Row | Sequence | binding signal [E-score]
51 | GCGTTATA | 0.107
52 | CCTGCTCC | 0.00881
53 | ACATGAGC | -0.276
54 | CCAAAGTA | -0.151
55 | TAACCTCA | -0.11
56 | CGTTTTCC | -0.141
57 | ACTTTAAC | -0.0727
58 | AGTCGGAC | -0.236
59 | CATACTCG | -0.00443
60 | GGCTGGAC | -0.258
61 | ACTGGGTG | 0.319
62 | CACGACCC | 0.32
63 | GCGCTACA | -0.0757
64 | CACATGAA | 0.0146
65 | CATGAATG | -0.0745
66 | AATTCGAA | -0.243
67 | CGAGATCA | 0.0229
68 | AGCAGAGC | -0.317
69 | AACTCCTA | -0.0855
70 | GGACAAAC | -0.0197
71 | AAACATAC | -0.0734
72 | GAAAAGCC | -0.187
73 | CAGCCCAG | 0.0853
74 | ACCACAAG | 0.0322
75 | AACTTCCC | -0.211

Row | Sequence | binding signal [E-score]
76 | AGTAGTTG | -0.0276
77 | ATAAGATC | -0.202
78 | AGTCCGCA | -0.228
79 | CGCTAAAA | -0.0709
80 | AACTTTGT | -0.133
81 | CTCGCCGA | -0.0707
82 | ATCCCTTA | 0.0579
83 | CTATATAC | 0.11
84 | ACCAATTA | 0.122
85 | ACCGGGGC | 0.0343
86 | ATGCCAGG | -0.135
87 | ACCTCCAG | -0.0173
88 | GCTCTCCA | -0.214
89 | CTTCGGTA | -0.0623
90 | ATTGTCCA | -0.0882
91 | GTTTAAGA | -0.0559
92 | GCTGCAAC | 0.094
93 | AAATCCGA | -0.178
94 | CAAAATTG | -0.0384
95 | CGACCAAG | -0.104
96 | ATCACGGA | -0.0136
97 | AGTGCCTA | -0.0789
98 | GTAGCAAA | -0.08
99 | AGTCAATC | -0.126
100 | AGATAACT | -0.0253

Row | Sequence | binding signal [E-score]
101 | ATTCAATG | -0.0935
102 | ATGCAATA | 0.0154
103 | AACACCCC | 0.475
104 | GAGCTCGC | -0.171
105 | CGAACACA | 0.215
106 | GTGGGTGA | -0.00233
107 | ACATAGCA | -0.124
108 | ATACTAAT | 0.036
109 | GCCGAACC | -0.284
110 | ATCACCTC | 0.0216
111 | AAGCTAGC | -0.255
112 | CCCGGGGA | 0.206
113 | CGATAGCG | -0.0241
114 | ATCCCCCG | 0.266
115 | TATTCTAA | 0.213
116 | GCCGTCTA | -0.0126
117 | GGGCACAC | 0.284
118 | ACCCTAGT | 0.269
119 | CAGCTCAG | -0.048
120 | GAGGATCA | 0.126
121 | ACCCGCCG | 0.258
122 | CATGCAGG | -0.0296
123 | CAGTAAGG | -0.052
124 | CGGTATAG | -0.132
125 | ATACCGAA | 0.0841

Row | Sequence | binding signal [E-score]
126 | CGCGATTA | 0.0154
127 | AAGAGGCT | -0.123
128 | TAAAAGTA | -0.179
129 | AACAGGTT | -0.181
130 | TCTATCCA | -0.107
131 | TATCGCAA | 0.0311
132 | ATTAGGGA | -0.18
133 | AAATAGAC | 0.04
134 | TCTTAACA | 0.202
135 | ATCACATC | -0.0874
136 | CAAAGGGG | 0.188
137 | GTATCCAC | 0.287
138 | GTTGAACA | 0.016
139 | AACTCGCT | -0.0561
140 | CTTGGATA | -0.102
141 | AGATTGCT | -0.0116
142 | AAGCCAAA | -0.272
143 | CGCTCTAA | -0.129
144 | GGGCCTTA | -0.119
145 | ACACTAGT | 0.389
146 | CCACGAGG | -0.0701
147 | ACACCCAC | 0.468
148 | AGTAATAT | -0.0125
149 | ATATAGAC | 0.0309
150 | CCTAGCGA | -0.134

Row | Sequence | binding signal [E-score]
151 | ACTTCCAG | -0.113
152 | AAAATCAT | -0.214
153 | CCAGAACG | 0.0814
154 | AACAGCCG | -0.234
155 | ACTACACC | 0.488
156 | GGACCTTA | -0.125
157 | TCGGTAGA | -0.146
158 | CTATTGGA | -0.188
159 | AAAACGGC | -0.0563
160 | AGCTTGTG | -0.159
161 | AACAAGGT | 0.0167
162 | ATCGAGCA | -0.219
163 | AAAGGATA | 0.14
164 | CAAGATGG | 0.0275
165 | GGTGCTCA | 0.25
166 | CGTCCCCC | 0.0269
167 | GGGGCCTA | -0.138
168 | AAGTGAGG | -0.0254
169 | ACGTATCC | 0.124
170 | AAGTTTTA | -0.153
171 | CATGCTTC | -0.283
172 | ATAATACG | 0.0432
